# The full ranking holds about 33,000 sequences; the median of “E-score (-0.5 to 0.5)” is about -0.035, and the highest 2% start at about 0.35. This is one part of the list.
# Biological target: T1, Pdr3 (UniProt P33200)
# T1 sequence: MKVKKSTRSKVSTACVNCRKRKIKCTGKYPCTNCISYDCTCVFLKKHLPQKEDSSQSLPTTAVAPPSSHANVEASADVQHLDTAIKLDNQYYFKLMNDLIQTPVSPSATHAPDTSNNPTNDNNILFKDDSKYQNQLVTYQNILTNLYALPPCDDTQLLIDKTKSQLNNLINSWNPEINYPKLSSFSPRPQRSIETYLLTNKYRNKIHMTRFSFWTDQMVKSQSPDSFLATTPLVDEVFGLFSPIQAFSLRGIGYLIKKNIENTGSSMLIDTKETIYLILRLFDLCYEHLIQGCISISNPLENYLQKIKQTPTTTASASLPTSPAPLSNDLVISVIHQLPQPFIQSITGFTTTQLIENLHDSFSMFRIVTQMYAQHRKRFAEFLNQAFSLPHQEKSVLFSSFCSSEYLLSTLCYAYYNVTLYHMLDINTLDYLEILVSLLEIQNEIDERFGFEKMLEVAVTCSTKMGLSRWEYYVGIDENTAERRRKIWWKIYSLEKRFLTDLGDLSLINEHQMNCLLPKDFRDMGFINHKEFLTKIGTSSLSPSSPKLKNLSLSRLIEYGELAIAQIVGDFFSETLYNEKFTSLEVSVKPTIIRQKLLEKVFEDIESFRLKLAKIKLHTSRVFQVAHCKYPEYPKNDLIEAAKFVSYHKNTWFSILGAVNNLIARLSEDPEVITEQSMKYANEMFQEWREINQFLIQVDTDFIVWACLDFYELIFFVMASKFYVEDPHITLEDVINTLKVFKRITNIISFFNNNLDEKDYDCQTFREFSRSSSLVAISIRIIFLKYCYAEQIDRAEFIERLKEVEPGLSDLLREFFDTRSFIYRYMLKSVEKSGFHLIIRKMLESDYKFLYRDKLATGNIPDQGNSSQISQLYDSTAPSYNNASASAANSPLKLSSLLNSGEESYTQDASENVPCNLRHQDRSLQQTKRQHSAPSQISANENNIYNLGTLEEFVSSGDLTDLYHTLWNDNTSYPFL
# Experiment: PBM E-score (8-mer binding enrichment) (E-score (-0.5 to 0.5)); higher = stronger / more preferred TF binding; most listed sequences are background and not binding sites
# Conditions: protein concentration: 200 nM; construct: GST-full length
# Procedure, shortened: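 Bound GST-tagged yeast transcription factors, applied at about 100-200 nM to double-stranded universal all-10-mer Agilent arrays, were detected with fluorescent anti-GST. Scans were normalised with masliner. A modified Wilcoxon-Mann-Whitney statistic, the E-score, was assigned to each ungapped eight-base word pooled with its reverse complement by the Universal PBM Analysis Suite.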
row,Sequence,PBM E-score
1,GTTGAAGA,-0.131
2,TTACCTAA,0.0168
3,GAATATTA,0.199
4,GGGCGTAC,-0.00965
5,AGACGACA,-0.0655
6,ACCATAAG,-0.258
7,ATATCTGA,0.0555
8,GAGATTGA,-0.115
9,CATTCCCA,-0.089
10,ATGCCGCA,0.199
11,ACCTGGAA,0.0004
12,AACGCCAC,-0.147
13,CATGATTA,0.0563
14,CAAAGACG,-0.178
15,AAAGCAGC,0.0132
16,CTCATCGA,-0.00992
17,ACTACCCG,0.236
18,GCCGCCGC,0.167
19,ATGCCGAC,0.159
20,ATGGGGAC,0.0641
21,ACCTCTCA,0.0765
22,CTACTAAC,0.0754
23,ACACAGAT,-0.112
24,CCCAGCGA,-0.0714
25,GGCCAACA,0.0662

row,Sequence,PBM E-score
1,AGACGGTG,-0.235
2,CAGCAATG,-0.357
3,CAAGACAG,-0.0605
4,ACGAGTTC,-0.119
5,CTACCTTC,-0.0284
6,CACCGATC,0.123
7,CAATGCCC,0.136
8,AGGTGAAA,-0.106
9,ACTCACAA,-0.112
10,AATTCATG,0.148
11,CCACAAGG,-0.0411
12,GCGGATCC,0.409
13,CCACTAGC,-0.207
14,CCATAGAG,-0.107
15,GCCGTTCA,0.132
16,GAGACCTA,-0.00406
17,ACCACAAT,-0.0705
18,GAACGCGC,0.19
19,GCGACGAC,-0.144
20,AGAGTGGA,-0.116
21,GAAGTTGA,0.0408
22,AAGGGTAT,-0.098
23,CGACCGAA,0.0221
24,CAGAGAAG,-0.0843
25,GGAATAGA,0.219

row,Sequence,PBM E-score
1,GCCCGTAA,0.0221
2,AGATCTAA,-0.253
3,AGAGTGCG,-0.0211
4,AGAGGAAC,-0.066
5,CTCCTCCA,-0.07
6,ATGAATAG,0.0874
7,AGCGTTAG,-0.146
8,CCCTTAGG,-0.244
9,GTGAAAAA,0.0595
10,CAATCGAC,-0.203
11,ACGAGAGT,-0.124
12,GTTATTTA,0.0344
13,AGCTTAGC,-0.115
14,AAAGCTGA,-0.166
15,AGGTTTCC,0.0123
16,AGGCTGAC,-0.122
17,CCATAATC,-0.0573
18,ATGCCGTG,0.125
19,AAGCTAGC,-0.0912
20,ATGAACAG,-0.105
21,CAGGCGTC,-0.0862
22,ACTGACAG,0.0081
23,CCCACCTC,-0.195
24,GAGACAGC,-0.00565
25,AGCTTACG,-0.297

row,Sequence,PBM E-score
1,CGAAGTCC,0.0414
2,ATATACGC,-0.0896
3,TGCCCGCA,0.246
4,GCCGCTGA,0.23
5,AATGCTGA,-0.186
6,GACCCTCA,-0.138
7,GTATAAGA,-0.188
8,CGCCTAAG,-0.251
9,ATCGTGCG,0.164
10,CGAACTGA,0.0143
11,CGCCACTA,-0.137
12,CGGAGACG,0.335
13,TCCACAGA,-0.0602
14,GAACTCCA,0.0704
15,GCAGATAA,-0.0148
16,AATTATGA,0.045
17,CCAAGTCG,-0.00288
18,AGATCGCT,0.0793
19,ATTCAAAT,0.021
20,CTCGCTAA,-0.0585
21,AGGCAAAT,0.0679
22,AAAAACAG,-0.139
23,TCGACCCA,-0.122
24,ATGCATGC,-0.138
25,AGCAATAA,-0.15

row,Sequence,PBM E-score
1,GACTTGCA,-0.055
2,AGACACCA,-0.0252
3,ACCCCGCA,0.156
4,CCTGTTGA,-0.144
5,AGAGTACA,-0.207
6,AGTTGTAT,-0.0418
7,ATTACGGG,-0.0819
8,GAGCGTTA,-0.14
9,ATTGGCAC,-0.108
10,GATACGGA,0.357
11,CTACGGAC,0.0596
12,TAAGATCA,-0.267
13,GCAAGCCA,-0.215
14,GAATATGC,-0.0675
15,AGAACTAT,-0.0311
16,ACCCGAGC,0.245
17,TGTATCAA,0.0329
18,ATTCTCTG,-0.184
19,GAGCTATA,-0.303
20,AGTTATCA,-0.275
21,CGCCTCCG,0.295
22,ACAAACTG,-0.248
23,AGGCGAGG,-0.0755
24,CGGGAAGA,0.391
25,ATGTTATC,0.0774

row,Sequence,PBM E-score
1,AGTGCTGG,-0.103
2,GCCAGACA,0.0107
3,GGTGTCAC,0.073
4,CTACTGAC,-0.107
5,ATACCGGG,0.183
6,CGCTATTA,0.0145
7,AGGTATCG,0.117
8,CTGGGGTC,-0.0264
9,CAAAGGAA,0.0289
10,CATTTGGG,-0.0523
11,AAGTCTAT,-0.272
12,CTTAGGCA,-0.275
13,ACCGTCAC,-0.113
14,AAGAGGTA,0.0631
15,GACATCTC,0.123
16,CGTTGTAG,0.193
17,AACGCTTA,-0.192
18,TATGCGAA,0.013
19,AGACTAAT,-0.0279
20,ACCAGATA,0.0315
21,CCCCACTC,-0.0483
22,AGCTGGCG,-0.0937
23,ACCTGCTC,-0.0276
24,CATGTAAC,-0.0635
25,TAGAGTGA,-0.134

row,Sequence,PBM E-score
1,CGCACGTC,0.0583
2,GAGCCGTA,0.223
3,GCAATTCA,0.125
4,CACCAATA,-0.0503
5,CGAAGCCA,-0.211
6,AGGTACAA,-0.2
7,ATTCCGAC,0.413
8,AACCACAA,0.126
9,GCGCCTTA,-0.00836
10,GTAACTAC,-0.0267
11,AAATCTCT,-0.0331
12,CGGAGGCA,0.103
13,CGACAGAC,-0.0397
14,ACGTTCCA,0.0623
15,ACGCAATC,0.0295
16,CCTGGACG,0.0302
17,AACTAGGT,0.131
18,AGCAATTA,0.0128
19,AACTGAGG,-0.0968
20,GGTGAACA,-0.126
21,AATGACTG,-0.188
22,CCACCCTC,0.0627
23,CCCAGGAA,-0.175
24,ATGCCGAA,0.261
25,GAAGACGA,-0.0212

row,Sequence,PBM E-score
1,ACGTTGCA,-0.0806
2,ATTCGAAT,-0.169
3,CTTGGCTA,-0.151
4,AACCTGTA,-0.187
5,GACCCCGC,0.189
6,ACTATTTG,-0.0398
7,AGTGGACG,0.0406
8,CTCATGAC,0.0737
9,AGACGGCG,0.166
10,CCAAGCAG,-0.0496
11,AGGCGTGG,-0.371
12,AACCAGTC,-0.11
13,AATCTGTG,0.0867
14,AACTAGCG,0.0803
15,ACACGTCA,-0.0841
16,ATTCCTCA,-0.0935
17,CCGAAACA,0.168
18,CTTGACTA,-0.119
19,AGCTGGAA,-0.127
20,AGTCTTTA,-0.398
21,AGTATCAT,0.165
22,CTCGCGAC,0.0674
23,CCAAGACA,0.0447
24,TACGGGCA,0.00013
25,ATAGATAG,-0.216

row,Sequence,PBM E-score
1,ACGCACAT,-0.092
2,GGATCGTA,0.138
3,GTCGGCTA,0.0468
4,CTATCAGC,-0.156
5,CCATTGAA,0.0398
6,ATTACGTG,-0.135
7,CGCTTACG,-0.16
8,GGATCTAA,0.0614
9,ACACTCCA,-0.195
10,CTAACCCC,-0.115
11,GAGGGATA,-0.105
12,GCCTTCAA,-0.0715
13,ATATCGCC,0.277
14,AGTGCATG,-0.113
15,AACACACT,-0.0524
16,CCTAGCGC,-0.0156
17,CAACCGTC,-0.0821
18,ACTTTCAC,0.0246
19,ATTATACC,0.199

# — the supplement of paper PMC3334620
